According to PubChem BioAssay AID1768 (National Center for Advancing Translational Sciences (NCATS), 2009):
Screen size: about 270,000 compounds; about 620 (0.23%) were called active. The shares of active, inactive and inconclusive entries below differ from those in the screen. Calls follow the shape of the dose curve; as a rule, active = well fitted inhibition curve with a large enough effect in the polarisation, with a control signal flat (not every such curve was filed as active); inconclusive = small, poorly fitted or top-dose-only effect, or effect the other way, or a change in a side signal; inactive = no such curve, though single readings can be large or run the other way; the % refers to the polarisation. Where the call is inconclusive, the potency comes from a doubtful curve fit. A note “side channel” means that the fit belongs to a control or component signal, not to the main read-out.

These compounds were tested against Menin (Homo sapiens) (UniProt O00255) (assay: qHTS Assay for Inhibitors Targeting the Menin-MLL Interaction in MLL Related Leukemias: Competition With Texas Red Labeled MLL-derived Mutant Peptide). Details: fluorescence polarization; FP activity change, negative = inhibition: at 61.6 µM (top of the series).
For FP activity change, negative = inhibition in this document: % of control where 0% means no effect.
Potency is read from the fitted curve at half-maximal effect; tags tell the direction and shape of the fitted curve or compound fluorescence and quenching.

UniProt O00255, sequence (O00255 whole entry, looked up): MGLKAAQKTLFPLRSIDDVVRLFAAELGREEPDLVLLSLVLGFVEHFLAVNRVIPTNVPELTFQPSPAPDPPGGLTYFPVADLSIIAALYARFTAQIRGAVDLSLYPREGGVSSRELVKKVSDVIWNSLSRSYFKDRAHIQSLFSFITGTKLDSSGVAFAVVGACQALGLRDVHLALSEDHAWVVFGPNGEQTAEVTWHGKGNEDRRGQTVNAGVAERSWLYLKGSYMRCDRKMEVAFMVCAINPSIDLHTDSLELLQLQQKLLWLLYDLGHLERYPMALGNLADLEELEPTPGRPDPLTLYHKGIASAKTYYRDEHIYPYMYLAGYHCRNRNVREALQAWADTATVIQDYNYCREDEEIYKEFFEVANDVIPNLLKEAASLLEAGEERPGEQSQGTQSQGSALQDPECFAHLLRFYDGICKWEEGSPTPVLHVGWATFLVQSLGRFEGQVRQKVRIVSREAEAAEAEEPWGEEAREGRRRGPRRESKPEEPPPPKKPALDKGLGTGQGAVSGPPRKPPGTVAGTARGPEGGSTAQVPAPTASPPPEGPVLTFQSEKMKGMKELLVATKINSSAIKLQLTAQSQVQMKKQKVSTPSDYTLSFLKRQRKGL

`CCOc1cc(CNCC(C)C)cc(Cl)c1OCc1ccccc1` was tested. Which Potency did it give?
Its Potency is inconclusive: 6.31 µM [fluorescent, side channel, partial curve].

`COc1ccc(C(=O)C2CCCN(Cc3c(F)ccc(F)c3F)C2)c(OC)c1` (stereo unspecified) was tested. Which Potency did it give?
The Potency was inconclusive: 35.5 µM [fluorescent, side channel, single point].

Which Potency does the source give for `O=C(c1cccc(Cl)c1)N1CCN(CCCc2ccccc2)CC1` here?
Its Potency is inconclusive: 25.1 µM [fluorescent, side channel, single point].

`Cc1cccc(NC(=O)CSc2n[nH]c(-c3ccncc3)n2)c1` was tested. Which Potency did it give?
Its Potency is inconclusive: 8.91 µM [inhibitor, single point].

How did the “FP activity change, negative = inhibition” value turn out when `Cc1ccc(C)c(N2CCN(C(=S)Nc3ccc4nc(N5CCN(C)CC5)cc(C)c4c3)CC2)c1` was run?
The value was inactive: -19.9%.

With `O=C(/C=C/c1ccc(F)cc1)Nc1cccc(S(=O)(=O)Nc2cccc(C(F)(F)F)c2)c1` as the compound, how does the Potency read?
Its Potency is inconclusive: 7.08 µM [quencher, side channel, partial curve].

`O=C(CCC(=O)c1ccc(Br)cc1)Nc1cccc(C(F)(F)F)c1` was tested. Which Potency did it give?
The Potency was inconclusive: 39.8 µM [quencher, side channel, single point].

For `COc1ccc(OC)c2sc(NC(=O)c3ccc(Br)s3)nc12`, which Potency is on record?
The Potency was inconclusive: 3.16 µM [quencher, side channel, full curve].

For `O=c1c2ccccc2nc(SCc2cn3ccsc3n2)n1-c1ccccc1F`, which Potency is on record?
The Potency was inconclusive: 8.91 µM [inhibitor, single point].

With `CC(=O)Nc1ccc(OCC(O)Cn2c3ccccc3c3ccccc32)c(C)c1` (stereo unspecified) as the compound, how does the Potency read?
Its Potency is inconclusive: 35.5 µM [quencher, side channel, single point].

How did the Potency turn out when `O=C(CSc1nnc(SCc2cccc3ccccc23)s1)N=Nc1c(O)[nH]c2ccccc12` was run?
Its Potency is inconclusive: 28.2 µM [quencher, side channel, single point].

`CCCC[C@H]1CCCO[C@@](C(=O)NCc2ccc(C)o2)(C(F)(F)F)C1` was tested. Which “FP activity change, negative = inhibition” value did it give?
Its value is inactive: -19.8%.

With `O=C(C1CC1)N(CCN(Cc1ccccc1)C(=O)C1CC1)Cc1ccccc1` as the compound, how does the Potency read?
The Potency was inconclusive: 6.31 µM [inhibitor, partial curve].

Which Potency does the source give for `CCN1C(=NCc2ccc(OC)cc2)N[C@@H](c2ccccc2)C(C(=O)OC)=C1C` here?
The Potency was inconclusive: 10 µM [inhibitor, partial curve].

Which Potency does the source give for `CC(C(=O)Nc1ccc(F)cc1Cl)N(C)CCOc1ccccc1` (stereo unspecified) here?
Its Potency is inconclusive: 35.5 µM [fluorescent, side channel, single point].

How did the Potency turn out when `CC(NC(=O)CN(C)Cc1cccc(F)c1)c1ccccc1` (stereo unspecified) was run?
Its Potency is inconclusive: 11.2 µM [inhibitor, partial curve, poor fit].

With `CN(C)C=Nc1ncc2c3ccccc3n(CCN(C)C)c2c1C#N` as the compound, how does the “FP activity change, negative = inhibition” value read?
The value was inactive: -16%.

With `CCc1ccc(-n2nnnc2SCC(=O)Nc2ccc(NC(C)=O)cc2)cc1` as the compound, how does the Potency read?
Its Potency is inconclusive: 39.8 µM [fluorescent, single point].

For `O=C(Nc1nc(-c2ccccn2)cs1)C1CC1`, which “FP activity change, negative = inhibition” value is on record?
The value was inactive: -10.1%.

Which Potency does the source give for `Cc1cc(N(CCO)CCO)ccc1N=Nc1cc(F)ccc1F` here?
The Potency was inconclusive: 28.2 µM [quencher, side channel, partial curve].

With `CCc1ccccc1N(CC(=O)Nc1cccc(N(C)S(C)(=O)=O)c1)S(C)(=O)=O` as the compound, how does the Potency read?
Its Potency is inconclusive: 31.6 µM [quencher, side channel, single point].

With `Cc1ccc(Cl)cc1NC1=C/C(=N\S(=O)(=O)c2cccs2)c2ccccc2C1=O` as the compound, how does the Potency read?
Its Potency is inconclusive: 28.2 µM [quencher, side channel, partial curve].

With `Cc1ccccc1NC(=O)Cn1nnc(S(=O)(=O)c2ccc(C(C)(C)C)cc2)c1N` as the compound, how does the Potency read?
Its Potency is inconclusive: 22.4 µM [inhibitor, single point].

With `CCOC(=O)C1=C(CP(=O)(c2ccccc2)c2ccccc2)NC(=O)NC1c1ccc(Cl)cc1` (stereo unspecified) as the compound, how does the Potency read?
The Potency was inconclusive: 7.08 µM [fluorescent, side channel, partial curve].

`COc1ccc(/C=C2/C(=O)N(c3nc4ccccc4s3)N=C2CSc2ccc(Cl)cc2)cc1` was tested. Which Potency did it give?
The Potency was inconclusive: 2.24 µM [quencher, side channel, full curve].

How did the Potency turn out when `CCn1c(C)c(C2=CCN(S(=O)(=O)c3ccccc3)CC2)c2ccccc21` was run?
The Potency was inconclusive: 25.1 µM [fluorescent, side channel, single point].

Which Potency does the source give for `COC(=O)c1ccc(NC(=O)C(=O)N2CCN(C(=S)Nc3cccc(OC)c3)CC2)cc1` here?
Its Potency is inconclusive: 10 µM [quencher, side channel, partial curve].

`CCC(/C=C1\Sc2ccc(OC)cc2N1CC)=C\c1sc2ccc(OC)cc2[n+]1CCCS(=O)(=O)[O-]` was tested. Which Potency did it give?
Its Potency is inconclusive: 3.16 µM [fluorescent, side channel, full curve].

`CCOC(=O)C1C(c2ccc(C(=O)O)cc2)NC(=O)NC1(O)C(F)(F)F` (stereo unspecified) was tested. Which Potency did it give?
Its Potency is inconclusive: 5.01 µM [inhibitor, single point].

For `CC(=O)N[C@@H](Cc1c[nH]c2ccccc12)C(=O)OCC(=O)Nc1ccc(Cl)c(S(=O)(=O)N(C)C)c1`, which Potency is on record?
The Potency was inconclusive: 20 µM [quencher, side channel, single point].

Which Potency does the source give for `O=C(Cc1sc(Nc2ccccc2)nc1-c1ccccc1)NCc1ccccc1` here?
Its Potency is inconclusive: 2.24 µM [quencher, side channel, full curve, poor fit].

How did the “FP activity change, negative = inhibition” value turn out when `COc1ccc(OC)c(NC(=O)CC2C(=O)NCCN2C(=O)c2ccccc2)c1` (stereo unspecified) was run?
The value was inactive: -1.04%.

How did the Potency turn out when `COc1ccc(N(C(=O)c2ccco2)C(C(=O)NC2CCCC2)c2ccccc2)cc1` (stereo unspecified) was run?
The Potency was inconclusive: 14.1 µM [fluorescent, side channel, partial curve].

How did the Potency turn out when `COc1ccc(NCc2nn(CC(=O)c3ccc(Br)cc3)c3[n+]2CCCCC3)cc1` was run?
Its Potency is inconclusive: 31.6 µM [inhibitor, single point].

For `CCOc1ccccc1N1CCN(C(=O)C2c3ccccc3Oc3ccccc32)CC1`, which Potency is on record?
Its Potency is inconclusive: 10 µM [fluorescent, side channel, full curve, poor fit].

For `Cc1nn(C(=O)c2c([N+](=O)[O-])cnn2C)c(C)c1Cl`, which Potency is on record?
Its Potency is inconclusive: 3.16 µM [inhibitor, partial curve].

With `CC(=O)NC(=S)Nc1ccc(-c2nc3ccc(C)cc3s2)cc1` as the compound, how does the Potency read?
The Potency was inconclusive: 2.82 µM [inhibitor, partial curve, poor fit].

For `CC(C)C1CC(=O)NC(SCC(=O)Nc2ccc(Br)cc2)=C1C#N` (stereo unspecified), which Potency is on record?
The Potency was inconclusive: 14.1 µM [quencher, side channel, partial curve].

How did the Potency turn out when `CC1CCN(C(=O)c2ccccc2NC(=O)c2cccc(S(=O)(=O)N3CCOCC3)c2)CC1` was run?
Its Potency is inconclusive: 2.82 µM [inhibitor, full curve].

How did the Potency turn out when `O=C(Nc1ccc2c(c1)CCC2)Nc1ccccc1Cl` was run?
Its Potency is inconclusive: 17.8 µM [quencher, side channel, partial curve].

For `O=C(/C=C/c1ccccc1)N1CCCN(C(=O)/C=C/c2ccccc2)CC1`, which Potency is on record?
The Potency was inconclusive: 10 µM [inhibitor, partial curve].

How did the Potency turn out when `COc1ccc(NC(=O)N2CC3(CCN(S(=O)(=O)c4ccccc4)CC3)C2)cc1` was run?
Its Potency is inconclusive: 39.8 µM [fluorescent, side channel, single point].

Which “FP activity change, negative = inhibition” value does the source give for `C=CCn1c(Sc2nnc(C)s2)nc2c1c(=O)[nH]c(=O)n2C` here?
Its value is inactive: 3.56%.

For `CCC(C(=O)OCC(=O)Nc1ccc(SC(F)F)cc1)c1ccccc1` (stereo unspecified), which Potency is on record?
The Potency was inconclusive: 12.6 µM [quencher, side channel, partial curve].

How did the Potency turn out when `Cc1nc(C)c(C(=O)Nc2ccc(Oc3ccccc3)cc2)o1` was run?
The Potency was inconclusive: 39.8 µM [quencher, side channel, single point].

Which Potency does the source give for `C=CCN(CC=C)C(=S)NC(=O)Cc1cccc2ccccc12` here?
Its Potency is inconclusive: 14.1 µM [quencher, side channel, partial curve].

With `CC1(OC(=O)C2CCCC2)C(=O)C=C2C=C(c3ccsc3)OC=C2C1=O` (stereo unspecified) as the compound, how does the Potency read?
The Potency was inconclusive: 31.6 µM [quencher, side channel, single point].

How did the Potency turn out when `Cc1ccc(N=c2oc3cc(O)ccc3cc2C(N)=O)cc1` was run?
Its Potency is inconclusive: 25.1 µM [quencher, side channel, single point].

With `Clc1ccc(C2=Nn3c(nnc3-c3n[nH]c4c3CCC4)SC2)cc1Cl` as the compound, how does the Potency read?
Its Potency is inconclusive: 12.6 µM [fluorescent, side channel, partial curve].

For `Cc1cc(S(=O)(=O)N2CCOCC2)ccc1OCC(=O)Nc1cccc(F)c1`, which Potency is on record?
Its Potency is inconclusive: 0.631 µM [inhibitor, full curve, poor fit].

How did the Potency turn out when `CC1=NN(C(N)=S)C(=O)C1N=Nc1ccc(F)cc1` (stereo unspecified) was run?
Its Potency is inconclusive: 14.1 µM [quencher, side channel, partial curve].

For `COc1cc2c(cc1OC)C(c1ccccc1)NCC2` (stereo unspecified), which Potency is on record?
The Potency was inconclusive: 39.8 µM [inhibitor, single point].

`COc1ccc(C2/C=C\CN(Cc3ccncc3)CC(=O)N2Cc2ccc(F)cc2)cc1` (stereo unspecified) was tested. Which Potency did it give?
Its Potency is inconclusive: 31.6 µM [inhibitor, single point].

Which Potency does the source give for `Cc1ccc(-n2cc3ccc([N+](=O)[O-])cc3n2)cc1` here?
The Potency was inconclusive: 22.4 µM [quencher, side channel, single point].

With `c1ccc(Nc2cccc3c(Nc4ccccc4)cccc23)cc1` as the compound, how does the Potency read?
The Potency was inconclusive: 4.47 µM [quencher, side channel, full curve].

How did the Potency turn out when `O=C(O)c1cnc(-c2ccccc2)nc1Sc1ccc(Cl)cc1` was run?
Its Potency is inconclusive: 20 µM [quencher, side channel, partial curve].
